According to paper PMC6377148:
Results are given in words; binding and its absence hold for the method and conditions named. Binding seen in cells or lysates may run through a third protein. Some binding calls cover weakened binding; strength is not graded here. For part of these data: Sequences can lack the tags named with a protein.

Sequences of proteins named here, by UniProt entry; tags and fusion partners are left off. A change or cut given only in a name is not applied to a line headed by its entry. A line that says so, or that is headed by a name, gives the form on record, which may keep a tag or linker.
UniProt Q7Z2Z1: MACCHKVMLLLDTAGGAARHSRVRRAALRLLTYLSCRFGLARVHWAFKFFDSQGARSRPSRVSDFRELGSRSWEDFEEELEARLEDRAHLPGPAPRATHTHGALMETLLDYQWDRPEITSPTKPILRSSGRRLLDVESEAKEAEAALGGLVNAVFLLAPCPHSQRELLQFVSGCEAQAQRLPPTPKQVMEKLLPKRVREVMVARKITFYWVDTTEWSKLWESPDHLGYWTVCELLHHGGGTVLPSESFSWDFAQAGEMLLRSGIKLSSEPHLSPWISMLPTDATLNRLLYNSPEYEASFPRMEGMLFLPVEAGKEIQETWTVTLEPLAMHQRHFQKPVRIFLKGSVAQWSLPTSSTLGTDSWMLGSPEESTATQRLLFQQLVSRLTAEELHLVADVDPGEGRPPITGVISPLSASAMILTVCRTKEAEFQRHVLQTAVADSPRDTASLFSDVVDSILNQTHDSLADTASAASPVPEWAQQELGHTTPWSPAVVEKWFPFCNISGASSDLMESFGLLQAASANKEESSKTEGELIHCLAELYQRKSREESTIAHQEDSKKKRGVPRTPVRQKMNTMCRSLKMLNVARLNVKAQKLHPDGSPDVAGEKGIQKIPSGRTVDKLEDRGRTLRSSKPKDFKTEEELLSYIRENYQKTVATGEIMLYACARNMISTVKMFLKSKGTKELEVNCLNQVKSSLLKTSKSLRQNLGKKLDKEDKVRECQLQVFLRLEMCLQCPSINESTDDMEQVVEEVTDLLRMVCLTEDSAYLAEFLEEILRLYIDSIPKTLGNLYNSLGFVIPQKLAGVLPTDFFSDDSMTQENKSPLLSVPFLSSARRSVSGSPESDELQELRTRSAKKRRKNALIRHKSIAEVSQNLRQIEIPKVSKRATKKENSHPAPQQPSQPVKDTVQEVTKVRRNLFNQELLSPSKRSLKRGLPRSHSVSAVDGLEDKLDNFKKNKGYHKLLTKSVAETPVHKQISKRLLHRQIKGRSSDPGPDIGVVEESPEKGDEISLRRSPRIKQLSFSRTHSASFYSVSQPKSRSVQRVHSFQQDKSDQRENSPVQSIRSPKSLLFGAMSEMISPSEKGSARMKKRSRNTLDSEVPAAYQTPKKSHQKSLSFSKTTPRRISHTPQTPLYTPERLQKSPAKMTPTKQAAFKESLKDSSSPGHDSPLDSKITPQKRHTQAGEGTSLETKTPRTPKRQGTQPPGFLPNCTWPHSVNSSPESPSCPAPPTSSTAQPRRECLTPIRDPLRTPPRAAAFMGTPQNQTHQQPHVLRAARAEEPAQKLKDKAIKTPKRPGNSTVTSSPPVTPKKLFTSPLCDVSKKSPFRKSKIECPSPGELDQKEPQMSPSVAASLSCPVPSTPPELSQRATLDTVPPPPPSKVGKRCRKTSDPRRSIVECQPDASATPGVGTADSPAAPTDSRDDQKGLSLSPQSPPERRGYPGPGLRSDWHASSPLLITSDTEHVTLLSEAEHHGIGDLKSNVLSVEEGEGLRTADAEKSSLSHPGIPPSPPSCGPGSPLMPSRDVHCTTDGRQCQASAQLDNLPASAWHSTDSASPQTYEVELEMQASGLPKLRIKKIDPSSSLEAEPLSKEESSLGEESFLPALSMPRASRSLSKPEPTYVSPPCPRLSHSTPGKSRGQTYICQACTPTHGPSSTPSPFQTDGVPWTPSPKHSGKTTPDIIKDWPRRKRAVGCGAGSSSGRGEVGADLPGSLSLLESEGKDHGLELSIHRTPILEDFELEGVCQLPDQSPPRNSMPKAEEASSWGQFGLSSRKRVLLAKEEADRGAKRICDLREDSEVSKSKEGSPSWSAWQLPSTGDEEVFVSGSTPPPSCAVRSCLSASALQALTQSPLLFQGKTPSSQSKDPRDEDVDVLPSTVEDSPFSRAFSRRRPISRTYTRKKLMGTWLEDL
GFP-Flag-Treslin-ΔM1 (Q7Z2Z1, form named): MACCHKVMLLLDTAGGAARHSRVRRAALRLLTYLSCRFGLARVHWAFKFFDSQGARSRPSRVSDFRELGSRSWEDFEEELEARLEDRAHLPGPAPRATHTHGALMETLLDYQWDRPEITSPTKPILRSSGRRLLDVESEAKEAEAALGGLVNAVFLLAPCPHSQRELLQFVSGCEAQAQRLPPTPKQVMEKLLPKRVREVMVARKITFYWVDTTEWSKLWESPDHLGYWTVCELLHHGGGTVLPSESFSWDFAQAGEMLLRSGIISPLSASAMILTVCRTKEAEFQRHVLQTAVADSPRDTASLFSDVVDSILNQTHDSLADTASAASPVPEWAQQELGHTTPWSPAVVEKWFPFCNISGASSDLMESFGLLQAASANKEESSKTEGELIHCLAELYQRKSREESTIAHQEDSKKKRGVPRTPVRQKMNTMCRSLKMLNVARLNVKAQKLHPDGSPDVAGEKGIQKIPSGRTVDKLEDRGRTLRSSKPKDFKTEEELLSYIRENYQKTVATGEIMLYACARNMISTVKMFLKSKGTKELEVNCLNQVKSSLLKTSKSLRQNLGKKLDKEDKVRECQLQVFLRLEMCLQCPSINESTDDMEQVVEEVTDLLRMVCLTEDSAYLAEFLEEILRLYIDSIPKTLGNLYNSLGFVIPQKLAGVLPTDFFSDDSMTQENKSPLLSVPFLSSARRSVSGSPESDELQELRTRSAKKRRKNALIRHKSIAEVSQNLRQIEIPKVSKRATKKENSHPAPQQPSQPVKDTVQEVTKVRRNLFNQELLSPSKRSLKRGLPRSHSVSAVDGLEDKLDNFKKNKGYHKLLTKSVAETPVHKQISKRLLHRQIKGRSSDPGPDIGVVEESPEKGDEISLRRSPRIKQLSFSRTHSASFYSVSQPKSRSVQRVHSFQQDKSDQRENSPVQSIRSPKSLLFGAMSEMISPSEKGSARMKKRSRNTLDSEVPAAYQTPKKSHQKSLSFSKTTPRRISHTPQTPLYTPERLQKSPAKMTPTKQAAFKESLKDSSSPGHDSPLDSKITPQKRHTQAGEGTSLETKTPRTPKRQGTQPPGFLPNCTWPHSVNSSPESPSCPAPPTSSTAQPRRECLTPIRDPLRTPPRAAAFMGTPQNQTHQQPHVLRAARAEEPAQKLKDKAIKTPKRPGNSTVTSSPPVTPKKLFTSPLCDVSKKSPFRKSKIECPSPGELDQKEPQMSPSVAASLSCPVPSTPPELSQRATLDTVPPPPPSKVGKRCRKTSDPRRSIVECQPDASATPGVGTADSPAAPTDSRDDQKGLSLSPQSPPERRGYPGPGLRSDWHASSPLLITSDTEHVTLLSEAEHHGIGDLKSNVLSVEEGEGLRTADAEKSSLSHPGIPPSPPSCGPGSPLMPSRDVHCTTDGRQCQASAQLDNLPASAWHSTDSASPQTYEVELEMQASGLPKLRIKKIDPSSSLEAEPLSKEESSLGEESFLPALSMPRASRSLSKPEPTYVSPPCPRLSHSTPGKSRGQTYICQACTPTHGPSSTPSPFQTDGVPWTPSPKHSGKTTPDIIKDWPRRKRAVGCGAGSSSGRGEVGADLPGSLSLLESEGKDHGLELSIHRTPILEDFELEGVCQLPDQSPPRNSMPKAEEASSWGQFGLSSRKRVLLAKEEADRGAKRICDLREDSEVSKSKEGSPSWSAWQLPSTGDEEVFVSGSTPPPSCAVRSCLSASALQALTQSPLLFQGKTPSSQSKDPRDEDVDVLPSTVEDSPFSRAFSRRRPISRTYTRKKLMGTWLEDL

B1: MTBP-ΔS7M-C (HeLa Flip-In T-Rex stable line) (domain or fragment, UniProt Q96DY7 1-823)
chain: MDRYLLLVIWGEGKFPSAASREAEHGPEVSSGEGTENQPDFTAANVYHLLKRSISASINPEDSTFPACSVGGIPGSKKWFFAVQAIYGFYQFCSSDWQEIHFDTEKDKIEDVLQTNIEECLGAVECFEEEDSNSRESLSLADLYEEAAENLHQLSDKLPAPGRAMVDIILLLSDKDPPKLKDYLPTVGALKHLREWYSAKITIAGNHCEINCQKIAEYLSANVVSLEDLRNVIDSKELWRGKIQIWERKFGFEISFPEFCLKGVTLKNFSTSNLNTDFLAKKIIPSKDKNILPKVFHYYGPALEFVQMIKLSDLPSCYMSDIEFELGLTNSTKQNSVLLLEQISSLCSKVGALFVLPCTISNILIPPPNQLSSRKWKEYIAKKPKTISVPDVEVKGECSSYYLLLQGNGNRRCKATLIHSANQINGSFALNLIHGKMKTKTEEAKLSFPFDLLSLPHFSGEQIVQREKQLANVQVLALEECLKRRKLAKQPETVSVAELKSLLVLTRKHFLDYFDAVIPKMILRKMDKIKTFNILNDFSPVEPNSSSLMETNPLEWPERHVLQNLETFEKTKQKMRTGSLPHSSEQLLGHKEGPRDSITLLDAKELLKYFTSDGLPIGDLQPLPIQKGEKTFVLTPELSPGKLQVLPFEKASVCHYHGIEYCLDDRKALERDGGFSELQSRLIRYETQTTCTRESFPVPTVLSPLPSPVVSSDPGSVPDGEVLQNELRTEVSRLKRRSKDLNCLYPRKRLVKSESSESLLSQTTGNSNHYHHHVTSRKPQTERSLPVTCPLVPIPSCETPKLATKTSSGQKSMHESKTSRQIK
B2: MTBP-WT-3×Flag (HeLa Flip-In T-Rex stable line) (protein, UniProt Q96DY7 1-904)
chain: MDRYLLLVIWGEGKFPSAASREAEHGPEVSSGEGTENQPDFTAANVYHLLKRSISASINPEDSTFPACSVGGIPGSKKWFFAVQAIYGFYQFCSSDWQEIHFDTEKDKIEDVLQTNIEECLGAVECFEEEDSNSRESLSLADLYEEAAENLHQLSDKLPAPGRAMVDIILLLSDKDPPKLKDYLPTVGALKHLREWYSAKITIAGNHCEINCQKIAEYLSANVVSLEDLRNVIDSKELWRGKIQIWERKFGFEISFPEFCLKGVTLKNFSTSNLNTDFLAKKIIPSKDKNILPKVFHYYGPALEFVQMIKLSDLPSCYMSDIEFELGLTNSTKQNSVLLLEQISSLCSKVGALFVLPCTISNILIPPPNQLSSRKWKEYIAKKPKTISVPDVEVKGECSSYYLLLQGNGNRRCKATLIHSANQINGSFALNLIHGKMKTKTEEAKLSFPFDLLSLPHFSGEQIVQREKQLANVQVLALEECLKRRKLAKQPETVSVAELKSLLVLTRKHFLDYFDAVIPKMILRKMDKIKTFNILNDFSPVEPNSSSLMETNPLEWPERHVLQNLETFEKTKQKMRTGSLPHSSEQLLGHKEGPRDSITLLDAKELLKYFTSDGLPIGDLQPLPIQKGEKTFVLTPELSPGKLQVLPFEKASVCHYHGIEYCLDDRKALERDGGFSELQSRLIRYETQTTCTRESFPVPTVLSPLPSPVVSSDPGSVPDGEVLQNELRTEVSRLKRRSKDLNCLYPRKRLVKSESSESLLSQTTGNSNHYHHHVTSRKPQTERSLPVTCPLVPIPSCETPKLATKTSSGQKSMHESKTSRQIKESRSQKHTRILKEVVTETLKKHSITETHECFTACSQRLFEISKFYLKDLKTSRGLFEEMKKTANNNAVQVIDWVLEKTSKK
B3: MTBP (Mdm2 binding protein), endogenous (protein, UniProt Q96DY7 1-904)
chain: B2 chain

Tests used:
[1] = biological target: Treslin/TICRR (TopBP1-interacting replication stimulating protein/TopBP1-interacting checkpoint and replication regulator), endogenous (human (endogenous in 293T and HeLa)) (UniProt Q7Z2Z1); assay: co-IP; IP of endogenous Treslin with rabbit anti-Treslin-970-1400 (control IgG) from native lysates of HeLa Flp-In T-Rex lines expressing MTBP-WT or C-terminal deletions; MTBP by immunoblot
[2] = biological target: GFP-Flag-Treslin-ΔM1 (human) (UniProt Q7Z2Z1); assay: co-IP; 293T transiently transfected with GFP-tagged MTBP or Treslin/TICRR; anti-GFP nanobodies on NHS sepharose, lysis buffer with 250 mM NaCl, 1 h at 4°C; endogenous partners by immunoblot

Binder | binding [1] | binding [2]
B1 | binds | –
B2 | binds | –
B3 | – | binds
